Measurements reported in US20110319597A1 (CAPHALON AUSTRALIA, published 2011).

B1: TNFα dAb Fc variant R18K (Fc fusion, name in Kabat numbering)
chain: DIQMTQSPSSLSASVGDKVTITCRASQAIDSYLHWYQQKPGKAPKLLIYSASNLETGVPSRFSGSGSGTDFTLTISSLLPEDFATYYCQQVVWRPFTFGQGTKVEIKRV[human IgG1 Fc with changes left out]
B2: TNFα dAb Fc variant V19A (Fc fusion, name in Kabat numbering)
chain: DIQMTQSPSSLSASVGDRATITCRASQAIDSYLHWYQQKPGKAPKLLIYSASNLETGVPSRFSGSGSGTDFTLTISSLLPEDFATYYCQQVVWRPFTFGQGTKVEIKRV[human IgG1 Fc with changes left out]
B3: TNFα dAb Fc variant T20A (Fc fusion, name in Kabat numbering)
chain: DIQMTQSPSSLSASVGDRVAITCRASQAIDSYLHWYQQKPGKAPKLLIYSASNLETGVPSRFSGSGSGTDFTLTISSLLPEDFATYYCQQVVWRPFTFGQGTKVEIKRV[human IgG1 Fc with changes left out]
B4: TNFα dAb Fc variant T20Y (Fc fusion, name in Kabat numbering)
chain: DIQMTQSPSSLSASVGDRVYITCRASQAIDSYLHWYQQKPGKAPKLLIYSASNLETGVPSRFSGSGSGTDFTLTISSLLPEDFATYYCQQVVWRPFTFGQGTKVEIKRV[human IgG1 Fc with changes left out]
B5: TNFα dAb Fc variant T20D (Fc fusion, name in Kabat numbering)
chain: DIQMTQSPSSLSASVGDRVDITCRASQAIDSYLHWYQQKPGKAPKLLIYSASNLETGVPSRFSGSGSGTDFTLTISSLLPEDFATYYCQQVVWRPFTFGQGTKVEIKRV[human IgG1 Fc with changes left out]
B6: TNFα dAb Fc variant T20Q (Fc fusion, name in Kabat numbering)
chain: DIQMTQSPSSLSASVGDRVQITCRASQAIDSYLHWYQQKPGKAPKLLIYSASNLETGVPSRFSGSGSGTDFTLTISSLLPEDFATYYCQQVVWRPFTFGQGTKVEIKRV[human IgG1 Fc with changes left out]
B7: TNFα dAb Fc variant T20H (Fc fusion, name in Kabat numbering)
chain: DIQMTQSPSSLSASVGDRVHITCRASQAIDSYLHWYQQKPGKAPKLLIYSASNLETGVPSRFSGSGSGTDFTLTISSLLPEDFATYYCQQVVWRPFTFGQGTKVEIKRV[human IgG1 Fc with changes left out]
B8: TNFα dAb Fc variant T20K (Fc fusion, name in Kabat numbering)
chain: DIQMTQSPSSLSASVGDRVKITCRASQAIDSYLHWYQQKPGKAPKLLIYSASNLETGVPSRFSGSGSGTDFTLTISSLLPEDFATYYCQQVVWRPFTFGQGTKVEIKRV[human IgG1 Fc with changes left out]
B9: TNFα dAb Fc variant I21L (Fc fusion, name in Kabat numbering)
chain: DIQMTQSPSSLSASVGDRVTLTCRASQAIDSYLHWYQQKPGKAPKLLIYSASNLETGVPSRFSGSGSGTDFTLTISSLLPEDFATYYCQQVVWRPFTFGQGTKVEIKRV[human IgG1 Fc with changes left out]
B10: TNFα dAb Fc variant T22A (Fc fusion, name in Kabat numbering)
chain: DIQMTQSPSSLSASVGDRVTIACRASQAIDSYLHWYQQKPGKAPKLLIYSASNLETGVPSRFSGSGSGTDFTLTISSLLPEDFATYYCQQVVWRPFTFGQGTKVEIKRV[human IgG1 Fc with changes left out]
B11: TNFα dAb Fc variant T22L (Fc fusion, name in Kabat numbering)
chain: DIQMTQSPSSLSASVGDRVTILCRASQAIDSYLHWYQQKPGKAPKLLIYSASNLETGVPSRFSGSGSGTDFTLTISSLLPEDFATYYCQQVVWRPFTFGQGTKVEIKRV[human IgG1 Fc with changes left out]
B12: TNFα dAb Fc variant T22Y (Fc fusion, name in Kabat numbering)
chain: DIQMTQSPSSLSASVGDRVTIYCRASQAIDSYLHWYQQKPGKAPKLLIYSASNLETGVPSRFSGSGSGTDFTLTISSLLPEDFATYYCQQVVWRPFTFGQGTKVEIKRV[human IgG1 Fc with changes left out]
B13: TNFα dAb Fc variant T22D (Fc fusion, name in Kabat numbering)
chain: DIQMTQSPSSLSASVGDRVTIDCRASQAIDSYLHWYQQKPGKAPKLLIYSASNLETGVPSRFSGSGSGTDFTLTISSLLPEDFATYYCQQVVWRPFTFGQGTKVEIKRV[human IgG1 Fc with changes left out]
B14: TNFα dAb Fc variant T22Q (Fc fusion, name in Kabat numbering)
chain: DIQMTQSPSSLSASVGDRVTIQCRASQAIDSYLHWYQQKPGKAPKLLIYSASNLETGVPSRFSGSGSGTDFTLTISSLLPEDFATYYCQQVVWRPFTFGQGTKVEIKRV[human IgG1 Fc with changes left out]
B15: TNFα dAb Fc variant T22H (Fc fusion, name in Kabat numbering)
chain: DIQMTQSPSSLSASVGDRVTIHCRASQAIDSYLHWYQQKPGKAPKLLIYSASNLETGVPSRFSGSGSGTDFTLTISSLLPEDFATYYCQQVVWRPFTFGQGTKVEIKRV[human IgG1 Fc with changes left out]
B16: TNFα dAb Fc variant D1A (Fc fusion, name in Kabat numbering)
chain: AIQMTQSPSSLSASVGDRVTITCRASQAIDSYLHWYQQKPGKAPKLLIYSASNLETGVPSRFSGSGSGTDFTLTISSLLPEDFATYYCQQVVWRPFTFGQGTKVEIKRV[human IgG1 Fc with changes left out]
B17: TNFα dAb Fc variant D1S (Fc fusion, name in Kabat numbering)
chain: SIQMTQSPSSLSASVGDRVTITCRASQAIDSYLHWYQQKPGKAPKLLIYSASNLETGVPSRFSGSGSGTDFTLTISSLLPEDFATYYCQQVVWRPFTFGQGTKVEIKRV[human IgG1 Fc with changes left out]
B18: TNFα dAb Fc variant D1L (Fc fusion, name in Kabat numbering)
chain: LIQMTQSPSSLSASVGDRVTITCRASQAIDSYLHWYQQKPGKAPKLLIYSASNLETGVPSRFSGSGSGTDFTLTISSLLPEDFATYYCQQVVWRPFTFGQGTKVEIKRV[human IgG1 Fc with changes left out]
B19: TNFα dAb Fc variant D1Y (Fc fusion, name in Kabat numbering)
chain: YIQMTQSPSSLSASVGDRVTITCRASQAIDSYLHWYQQKPGKAPKLLIYSASNLETGVPSRFSGSGSGTDFTLTISSLLPEDFATYYCQQVVWRPFTFGQGTKVEIKRV[human IgG1 Fc with changes left out]
B20: TNFα dAb Fc variant D1Q (Fc fusion, name in Kabat numbering)
chain: QIQMTQSPSSLSASVGDRVTITCRASQAIDSYLHWYQQKPGKAPKLLIYSASNLETGVPSRFSGSGSGTDFTLTISSLLPEDFATYYCQQVVWRPFTFGQGTKVEIKRV[human IgG1 Fc with changes left out]

biological target: recombinant human TNFα (human, UniProt P01375 in part); test: cell-based or functional assay
UniProt P01375, sequence (P01375 77-233 limits assumed): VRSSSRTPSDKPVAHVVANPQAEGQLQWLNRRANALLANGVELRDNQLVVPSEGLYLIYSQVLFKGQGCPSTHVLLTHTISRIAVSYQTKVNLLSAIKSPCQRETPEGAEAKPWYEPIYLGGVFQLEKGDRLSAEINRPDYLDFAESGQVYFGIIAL

In order of rising Standardized EC50, L929 neutralization assay (5-point):
1. B16  0.556 µg/mL
2. B19  0.676 µg/mL
3. B10  0.725 µg/mL
4. B17  0.846 µg/mL
5. B1  0.957 µg/mL
6. B20  1.1 µg/mL
7. B13  1.43 µg/mL
8. B3  1.6 µg/mL
9. B7  1.69 µg/mL
10. B2  1.86 µg/mL
11. B6  2.02 µg/mL
12. B14  2.26 µg/mL
13. B9  2.4 µg/mL
14. B11  2.51 µg/mL
15. B12  2.85 µg/mL
16. B5  3.22 µg/mL
17. B8  4.38 µg/mL
18. B18  6.04 µg/mL
19. B4  6.96 µg/mL
20. B15  11.5 µg/mL
